{"source": "PubChem BioAssay AID652106", "about": "(National Center for Advancing Translational Sciences (NCATS), 2013)", "note": "In all, about 370,000 compounds went through this assay and about 500 (0.14%) were called active. The shares of active, inactive and inconclusive entries below differ from those in the screen. The call rests on the fitted dose curve; in most records, active means well fitted activation curve with a large enough effect; inconclusive means small, poorly fitted or top-dose-only effect; inactive means no such curve, though single readings can be large or run the other way. No potency is given beside an inconclusive call; the fits are too rough. Potency means the concentration at half of the fitted maximal effect; tags describe the fitted curve by direction and shape.", "data": [{"assay": "qHTS of alpha-syn Inhibitors; further: nearly all actives have a fitted effect of over 65% in size; on growth rescue (activation): % of control where 0% means no effect", "conditions": "Yeast expressing alpha-synuclein, BacTiter-Glo, 24 h; Potency: growth rescue unless noted; growth rescue (activation): at 46.1 µM (top of the series) unless noted", "outline": "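Screening used galactose-induced yeast with toxic alpha-synuclein levels, exposed to compound for 24 hr at 30 deg C. Cell growth, read with BacTiter-Glo luminescence, gave the measured signal.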", "values": [{"smiles": "O=C(CSc1nnnn1C1CCCC1)Nc1ccc(F)cc1", "growth rescue (activation)": "inactive: -3.24%"}, {"smiles": "O=[N+]([O-])c1ccc(O)c(/C=N/Nc2ccc(Cl)nn2)c1", "Potency": "inconclusive [activator, full curve]"}, {"smiles": "Cc1cnc(NC(=O)c2cccc(S(=O)(=O)N3CC(C)OC(C)C3)c2)s1", "note": "(centres undefined)", "Potency": "inconclusive [activator, single point]"}, {"smiles": "CS(=O)(=O)c1ccc(Nc2nc(C(N)COCc3ccccc3)cs2)cc1", "note": "(centres undefined)", "Potency": "inconclusive [activator, single point]"}, {"smiles": "Clc1ccccc1C(c1ccccc1)(c1ccccc1)n1ccnc1", "Potency": "inconclusive [activator, full curve]"}, {"smiles": "O=C(Cc1ccc(OCCC2CCCCC2)cc1)NO", "Potency": "active: 5.62 µM"}, {"smiles": "CC(=O)NC(Cc1ccc([N+](=O)[O-])cc1)C(=O)NCC(N)C(=O)c1ccccc1", "note": "(centres undefined)", "growth rescue (activation)": "inactive: -6.53%"}, {"smiles": "CC(=O)NCc1cn2c(C)csc2n1", "Potency": "inconclusive [activator, partial curve]"}, {"smiles": "O=C(Nc1cccc2cccnc12)c1ccccc1Cl", "growth rescue (activation)": "inactive: -1.71%"}, {"smiles": "Cc1cccc(C(=O)O/N=C(\\c2ccccc2)c2cccnc2)c1", "growth rescue (activation)": "inactive: 9.41%"}, {"smiles": "COC(=O)N1C(=O)[C@](CC(C)C)(c2ccccc2)N1C(=O)OC", "growth rescue (activation)": "inactive: -0.12%"}, {"smiles": "Cc1cccc(/C=C/c2onc(C)c2[N+](=O)[O-])n1", "Potency": "inconclusive [activator, single point]"}, {"smiles": "O=S(=O)(Nc1ccc(F)cc1Cl)c1ccc(-c2cnc(C3CC3)o2)cc1", "Potency": "inconclusive [activator, partial curve]"}, {"smiles": "CCOc1ccc(CNC(=O)C2CCN(S(=O)(=O)CC)CC2)cc1OC", "Potency": "inconclusive [activator, partial curve]"}, {"smiles": "COc1ccc(S(=O)(=O)Nc2cccc3cccnc23)c([N+](=O)[O-])c1", "Potency": "active: 22.4 µM"}, {"smiles": "Fc1cc(Br)ccc1NC(=S)Nc1ccccc1", "growth rescue (activation)": "inactive: -8.06%"}, {"smiles": "Cc1cccc(C2=NN(c3ccccc3)[C@@H](C(=O)N3CCOC3=O)[C@@H]2c2ccccc2)c1", "Potency": "inconclusive [activator, partial curve]"}, {"smiles": "Cc1ccc(S(=O)(=O)c2cc3c(=O)n4ccccc4nc3n(Cc3ccco3)c2=N)cc1", "growth rescue (activation)": "inactive: -2.69%"}, {"smiles": "COc1ccc(C2Nc3ccccc3C(=O)N2c2ccccc2)cc1COc1ccc(NC(C)=O)cc1", "note": "(centres undefined)", "Potency": "inconclusive [activator, single point]"}, {"smiles": "O=C(Nc1ccc(S(=O)(=O)Nc2nccs2)cc1)c1cccc(N2C(=O)c3ccccc3C2=O)c1", "growth rescue (activation)": "inactive: 9.87%"}, {"smiles": "Cc1ccc(C)c(S(=O)(=O)Nc2ccc(S(=O)(=O)Nc3ncccn3)cc2)c1", "Potency": "inconclusive [activator, single point]"}, {"smiles": "N#Cc1ccc(NC(=O)Cn2cnc(S(=O)(=O)N3CCCC3)c2)cc1", "Potency": "inconclusive [activator, single point]"}, {"smiles": "Nc1nc2ccc(Cl)cc2cc1C(=O)NCCc1c[nH]c2ccccc12", "Potency": "inconclusive [activator, single point]"}, {"smiles": "Cc1ccccc1NC(=O)Nc1ccccc1C(N)=O", "Potency": "inconclusive [activator, single point]"}, {"smiles": "CN(C)c1ccc(/C=C2\\C(=O)Nc3ccccc32)cc1", "Potency": "inconclusive [activator, single point]"}, {"smiles": "CCOC(=O)Cc1c(C)nc2c(-c3cccc(Br)c3)cnn2c1C", "growth rescue (activation)": "inactive: -0.993%"}, {"smiles": "CCc1ccc(/C=C2\\SC(=S)N(CCCC(=O)NC3=NCCS3)C2=O)cc1", "Potency": "inconclusive [activator, single point]"}, {"smiles": "Cc1ccc2c(c1)C(=O)N1c3cc(C)c(C)cc3NC(=O)C1C(=O)N2", "note": "(centres undefined)", "Potency": "inconclusive [activator, single point]"}, {"smiles": "CCCn1nnnc1NC(=O)COc1ccc(Cl)cc1C", "Potency": "inconclusive [activator, single point]"}, {"smiles": "CCCNC(=O)C1(C)CCN(C(=O)/C=C/c2ccccc2)C1", "note": "(centres undefined)", "Potency": "inconclusive [activator, single point]"}, {"smiles": "Cc1ccc2nc(=O)c(NNc3ccccc3)cnc2c1", "Potency": "inconclusive [activator, single point]"}, {"smiles": "Cc1cc(C)cc(-n2ccnc2SCC(=O)Nc2ccc(C)c(Cl)c2)c1", "Potency": "inconclusive [activator, single point]"}, {"smiles": "CCOC(=O)c1oc2ccc(S(=O)(=O)n3nc(-c4ccccc4)cc3N)cc2c1C", "growth rescue (activation)": "inactive: 8.42%"}, {"smiles": "CCCOc1ccc(CN(CCC#N)C(=S)NC(=O)c2ccccc2)cc1", "Potency": "inconclusive [activator, single point]"}, {"smiles": "COc1ccccc1-c1csc(C(O)c2ccccc2)n1", "note": "(centres undefined)", "Potency": "inconclusive [activator, single point]"}, {"smiles": "CCc1ccc(NC(=O)c2cc(C)nn2-c2ccccc2)cc1", "growth rescue (activation)": "inactive: -0.701%"}, {"smiles": "CCCC(=O)NC(c1ccc(Cl)cc1)c1ccc2cccnc2c1O", "note": "(centres undefined)", "Potency": "inconclusive [activator, single point]"}, {"smiles": "O=C(O/N=C(\\c1ccccc1)c1ccncc1)c1ccccc1F", "Potency": "inconclusive [activator, single point]"}, {"smiles": "COc1ccc(OC)c(CN2C(=O)c3ccccc3C2c2nnnn2-c2ccc3c(c2)OCCO3)c1", "note": "(centres undefined)", "growth rescue (activation)": "inactive: -0.813%"}, {"smiles": "CS(=O)(=O)N1CCC(C(=O)Nc2ccc(Cl)cc2Cl)CC1", "Potency": "inconclusive [activator, single point]"}, {"smiles": "COc1ccccc1NC(=O)CC1S/C(=N/N=C2\\CCCc3ccccc32)NC1=O", "note": "(centres undefined)", "Potency": "inconclusive [activator, single point]"}, {"smiles": "CC(C)Oc1ccc(F)cc1-c1cc(C(=O)NC2CCCCC2)[nH]n1", "growth rescue (activation)": "inactive: -6.67%"}, {"smiles": "Cc1ccc(S(=O)(=O)CCC(=O)OCCOc2ccc(Br)cc2)cc1", "Potency": "inconclusive [activator, single point]"}, {"smiles": "Cc1ccc(C(=O)Oc2ccc(C(=O)COC(=O)c3cnccn3)cc2)cc1", "Potency": "inconclusive [activator, single point]"}, {"smiles": "Cc1ccc(C(=O)/C=C/c2ccc3c(c2)OCO3)o1", "growth rescue (activation)": "inactive: -1.41%"}, {"smiles": "O=C(CN1C(=O)c2ccccc2C1=O)N1CCN(C2c3ccccc3-c3ccccc32)CC1", "Potency": "inconclusive [activator, single point]"}, {"smiles": "Cn1ncc(Cl)c1C(=O)N/N=C/c1ccccn1", "Potency": "inconclusive [activator, single point]"}, {"smiles": "O=C(Cc1ccc(Br)c2ccccc12)N/N=C/c1ccccn1", "Potency": "inconclusive [activator, single point]"}, {"smiles": "CC(Oc1ccccc1)C(=O)NNC(=O)c1ccccn1", "note": "(centres undefined)", "growth rescue (activation)": "inactive: 22.4%"}, {"smiles": "Nc1ncnc2oc(-c3ccoc3)c(-c3ccco3)c12", "Potency": "inconclusive [activator, single point]"}, {"smiles": "Cc1cccc(CNC(=O)C2CCC(=O)N(Cc3ccccc3F)C2)n1", "note": "(centres undefined)", "growth rescue (activation)": "inactive: -1.97%"}, {"smiles": "Cc1ccc(SCC(=O)Nc2ccc(N3CCOCC3)cc2)c(C)c1", "Potency": "inconclusive [activator, single point]"}, {"smiles": "O=C(Nc1ccc(N2CCOCC2)cc1)c1cccc2c(-c3ccc(F)c(F)c3)coc12", "Potency": "inconclusive [activator, single point]"}, {"smiles": "Cc1nnc(Sc2nc3ccccc3o2)c2ccccc12", "Potency": "inconclusive [activator, single point]"}, {"smiles": "O=C(Nc1nc(-c2ccccn2)cs1)c1ccc2c(c1)OCCO2", "Potency": "inconclusive [activator, single point]"}, {"smiles": "O=C(c1cnn(C(=O)c2ccccc2)c1)c1ccccc1O", "growth rescue (activation)": "inactive: 3%"}, {"smiles": "COCC(=O)Nc1ccc(Br)c(C)c1", "growth rescue (activation)": "inactive: 0.074%"}, {"smiles": "O=C(OCN1C(=O)c2ccccc2C1=O)c1ccccc1", "Potency": "inconclusive [activator, single point]"}, {"smiles": "CC(=O)c1ccc(OCc2cc(=O)n3ccsc3n2)cc1", "Potency": "inconclusive [activator, single point]"}, {"smiles": "c1ccc(-c2nc(NCC3CC3)nc3ccsc23)cc1", "Potency": "inconclusive [activator, partial curve, poor fit]"}, {"smiles": "O=C(c1cn(-c2ccc(Cl)c(Cl)c2)nn1)C1CC1", "growth rescue (activation)": "inactive: 9.84%"}, {"smiles": "O=S(=O)(c1ccc2c(Cl)cccc2c1)N1CCN(c2nc(-c3cccs3)nc3ccccc23)CC1", "growth rescue (activation)": "inactive: -2.53%"}, {"smiles": "COC(=O)C1=C(C)N(Cc2ccccc2)C(=S)N[C@H]1c1ccccc1", "growth rescue (activation)": "inactive: 20.9%"}, {"smiles": "COc1ccc(-c2cc(-c3ccccc3)nc3ncnn23)cc1", "growth rescue (activation)": "inactive: 9.23%"}, {"smiles": "CC1=NC(=O)C(N=Nc2cccc(C(=O)O)c2)N1c1ccccc1", "note": "(centres undefined)", "Potency": "inconclusive [activator, partial curve]"}, {"smiles": "CC1SCC(=O)N(CC(=O)NCc2ccccc2)C1=O", "note": "(centres undefined)", "growth rescue (activation)": "inactive: -0.77%"}, {"smiles": "CC(=O)Nc1ccc(N2C(=O)CCC2=O)cc1C", "Potency": "inconclusive [activator, single point]"}, {"smiles": "O=C1OCCN1C(=O)[C@H]1[C@H](c2ccc(F)cc2)C(c2ccccc2)=NN1c1ccc(Br)cc1", "Potency": "inconclusive [activator, partial curve]"}, {"smiles": "C1=Cc2ccccc2/C1=C/c1ccc2c(c1)OCO2", "Potency": "inconclusive [activator, single point]"}, {"smiles": "O=C1CC(c2ccccc2)=NO1", "Potency": "active: 15.8 µM"}, {"smiles": "CCCCNC(=O)C1C(c2ccc(OC)cc2)=Nc2ccccc2N1C(=O)Cc1cc(OC)cc(OC)c1", "note": "(centres undefined)", "Potency": "inconclusive [activator, single point]"}, {"smiles": "O=c1[nH]c(SCc2cccc(Cl)c2)nc2[nH]ncc12", "Potency": "inconclusive [activator, single point]"}, {"smiles": "COc1ccc(S(=O)(=O)NC(=O)C2(C)CCN2C(=O)C(C)(C)c2ccccc2)cc1", "note": "(centres undefined)", "growth rescue (activation)": "inactive: 6.58%"}, {"smiles": "Oc1ccccc1C1SC(c2ccccc2O)SC(c2ccccc2O)S1", "note": "(centres undefined)", "Potency": "inconclusive [activator, single point]"}]}]}
